The supplement of paper PMC12217912
Some of the results follow. Sequences were assembled here from the parent chain. Inactive controls read about 0.05.

B1: TEV protease; numbered along this chain (parent)
chain: MGESLFKGPRDYNPISSSICHLTNESDGHTTSLYGIGFGPFIITNKHLFRRNNGTLVVQSLHGVFKVKDTTTLQQHLVDGRDMIIIRMPKDFPPFPQKLKFREPQREERICLVTTNFQTKSMSSMVSDTSCTFPSGDGIFWKHWIQTKDGQCGSPLVSTRDGFIVGIHSASNFTNTNNYFTSVPKNFMELLTNQEAQQWVSGWRLNADSVLWGGHKVFMVKPEEPFQPVKEATQL

Variants of: B1
Test: raw area under fraction-flipped curve 0-4 h after induction (AUC4h, not background-subtracted), DNA-recorder readout of cleavage of the substrate (dimensionless); higher = more cleavage of the substrate by the protease variant
Details: temperature: 34 °C; time window: 0-4 h after rhamnose induction
Protocol: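 In vivo DNA recorder in E. coli TOP10(DE3) ΔrhaA at 34 °C. Each TEVp single-site mutant (parent TEVp 0) is paired with a single-site variant of the 7-mer TEVs (canonical ENLYFQ|S). The substrate sits between flexible linkers in a Bxb1-sfGFP-TEVs-SsrA fusion, so cleavage stabilises Bxb1 and speeds flipping of a recombination array, read by NGS. The value is the raw area under the fraction-flipped curve over 0-4 h after rhamnose induction (AUC4h), with ≥20 reads per time point. It is not background-subtracted; inactive controls average about 0.047.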
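Further: Bxb1 expression induced with 0.2% (w/v) L-rhamnose at OD600 near 0.5, cultures sampled hourly, flipped fraction per protease–substrate barcode pair counted by paired-end Illumina sequencing.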

| Variant | area with substrate ENAYFQS | area with substrate ENCYFQS | area with substrate ENDYFQS | area with substrate ENFYFQS | area with substrate ENGYFQS | area with substrate ENHYFQS | area with substrate ENIYFQS | area with substrate ENNYFQS | area with substrate ENPYFQS | area with substrate ENQYFQS | area with substrate ENRYFQS | area with substrate ENSYFQS | area with substrate ENTYFQS | area with substrate ENVYFQS | area with substrate ENYYFQS | area with substrate ENEYFQS | area with substrate ENKYFQS | area with substrate ENMYFQS | area with substrate ENWYFQS |
| --- | --- | --- | --- | --- | --- | --- | --- | --- | --- | --- | --- | --- | --- | --- | --- | --- | --- | --- | --- |
| MGESLFKGPRDYNPISSSICHLTNESDPHTTSLYGIGFGPFIITNKHLFRRNNGTLVVQSLHGVFKVKDTTTLQQHLVDGRDMIIIRMPKDFPPFPQKLKFREPQREERICLVTTNFQTKSMSSMVSDTSCTFPSGDGIFWKHWIQTKDGQCGSPLVSTRDGFIVGIHSASNFTNTNNYFTSVPKNFMELLTNQEAQQWVSGWRLNADSVLWGGHKVFMVKPEEPFQPVKEATQL [G28P] | 0.0592 | 0.0543 | 0.0612 | 0.0641 | 0.0601 | 0.066 | 0.0845 | 0.0573 | 0.0524 | 0.0698 | 0.0563 | 0.0633 | 0.0562 | 0.0583 | 0.0645 | – | – | – | – |
| MGESLFKGPRDYNPISSSICHLTNESDRHTTSLYGIGFGPFIITNKHLFRRNNGTLVVQSLHGVFKVKDTTTLQQHLVDGRDMIIIRMPKDFPPFPQKLKFREPQREERICLVTTNFQTKSMSSMVSDTSCTFPSGDGIFWKHWIQTKDGQCGSPLVSTRDGFIVGIHSASNFTNTNNYFTSVPKNFMELLTNQEAQQWVSGWRLNADSVLWGGHKVFMVKPEEPFQPVKEATQL [G28R] | 0.0744 | – | 0.066 | 0.052 | – | 0.0628 | 0.104 | 0.0422 | – | 0.0604 | 0.0717 | 0.0579 | 0.071 | 0.0767 | – | 0.0449 | 0.0614 | 0.0798 | 0.0515 |
| MGESLFKGPRDYNPISSSICHLTNESDWHTTSLYGIGFGPFIITNKHLFRRNNGTLVVQSLHGVFKVKDTTTLQQHLVDGRDMIIIRMPKDFPPFPQKLKFREPQREERICLVTTNFQTKSMSSMVSDTSCTFPSGDGIFWKHWIQTKDGQCGSPLVSTRDGFIVGIHSASNFTNTNNYFTSVPKNFMELLTNQEAQQWVSGWRLNADSVLWGGHKVFMVKPEEPFQPVKEATQL [G28W] | 0.0537 | 0.0605 | 0.0583 | 0.0467 | 0.0537 | 0.0597 | 0.0739 | 0.053 | 0.0675 | 0.0569 | 0.0522 | 0.0571 | 0.0657 | 0.0744 | 0.0561 | – | 0.0713 | 0.0557 | 0.019 |
| MGESLFKGPRDYNPISSSICHLTNESDGHGTSLYGIGFGPFIITNKHLFRRNNGTLVVQSLHGVFKVKDTTTLQQHLVDGRDMIIIRMPKDFPPFPQKLKFREPQREERICLVTTNFQTKSMSSMVSDTSCTFPSGDGIFWKHWIQTKDGQCGSPLVSTRDGFIVGIHSASNFTNTNNYFTSVPKNFMELLTNQEAQQWVSGWRLNADSVLWGGHKVFMVKPEEPFQPVKEATQL [T30G] | 0.0547 | 0.0524 | 0.059 | 0.0329 | 0.0624 | 0.0526 | – | 0.0274 | – | 0.0268 | 0.0458 | – | 0.0284 | 0.0581 | – | 0.0616 | – | – | – |
| MGESLFKGPRDYNPISSSICHLTNESDGHTTSLFGIGFGPFIITNKHLFRRNNGTLVVQSLHGVFKVKDTTTLQQHLVDGRDMIIIRMPKDFPPFPQKLKFREPQREERICLVTTNFQTKSMSSMVSDTSCTFPSGDGIFWKHWIQTKDGQCGSPLVSTRDGFIVGIHSASNFTNTNNYFTSVPKNFMELLTNQEAQQWVSGWRLNADSVLWGGHKVFMVKPEEPFQPVKEATQL [Y34F] | 0.0547 | 0.0539 | 0.0723 | – | – | 0.0588 | 0.094 | 0.0584 | – | 0.067 | 0.081 | 0.056 | 0.0717 | 0.0802 | 0.0651 | 0.0509 | 0.0052 | – | 0.0529 |
| MGESLFKGPRDYNPISSSICHLTNESDGHTTSLGGIGFGPFIITNKHLFRRNNGTLVVQSLHGVFKVKDTTTLQQHLVDGRDMIIIRMPKDFPPFPQKLKFREPQREERICLVTTNFQTKSMSSMVSDTSCTFPSGDGIFWKHWIQTKDGQCGSPLVSTRDGFIVGIHSASNFTNTNNYFTSVPKNFMELLTNQEAQQWVSGWRLNADSVLWGGHKVFMVKPEEPFQPVKEATQL [Y34G] | 0.0105 | – | 0.0611 | 0.0561 | – | 0.0546 | – | 0.0386 | – | 0.0543 | – | 0.0479 | – | 0.0515 | – | 0.055 | 0.0603 | 0.0568 | 0.0533 |
| MGESLFKGPRDYNPISSSICHLTNESDGHTTSLIGIGFGPFIITNKHLFRRNNGTLVVQSLHGVFKVKDTTTLQQHLVDGRDMIIIRMPKDFPPFPQKLKFREPQREERICLVTTNFQTKSMSSMVSDTSCTFPSGDGIFWKHWIQTKDGQCGSPLVSTRDGFIVGIHSASNFTNTNNYFTSVPKNFMELLTNQEAQQWVSGWRLNADSVLWGGHKVFMVKPEEPFQPVKEATQL [Y34I] | 0.0596 | – | 0.0685 | – | 0.0587 | 0.0619 | 0.101 | 0.0631 | 0.0469 | 0.0682 | – | – | – | 0.0586 | 0.0453 | – | – | – | – |
| MGESLFKGPRDYNPISSSICHLTNESDGHTTSLYPIGFGPFIITNKHLFRRNNGTLVVQSLHGVFKVKDTTTLQQHLVDGRDMIIIRMPKDFPPFPQKLKFREPQREERICLVTTNFQTKSMSSMVSDTSCTFPSGDGIFWKHWIQTKDGQCGSPLVSTRDGFIVGIHSASNFTNTNNYFTSVPKNFMELLTNQEAQQWVSGWRLNADSVLWGGHKVFMVKPEEPFQPVKEATQL [G35P] | 0.0474 | 0.045 | – | 0.0407 | – | – | – | 0.0494 | – | – | 0.0497 | – | – | – | – | 0.0497 | 0.0366 | – | – |
| MGESLFKGPRDYNPISSSICHLTNESDGHTTSLYGLGFGPFIITNKHLFRRNNGTLVVQSLHGVFKVKDTTTLQQHLVDGRDMIIIRMPKDFPPFPQKLKFREPQREERICLVTTNFQTKSMSSMVSDTSCTFPSGDGIFWKHWIQTKDGQCGSPLVSTRDGFIVGIHSASNFTNTNNYFTSVPKNFMELLTNQEAQQWVSGWRLNADSVLWGGHKVFMVKPEEPFQPVKEATQL [I36L] | 0.0496 | – | 0.0568 | 0.0553 | – | 0.0562 | 0.112 | 0.0691 | 0.0588 | 0.0552 | 0.0719 | 0.0709 | 0.0697 | 0.0724 | – | 0.0737 | – | – | 0.0535 |
